# The whole screen tested about 110,000 compounds, of which about 230 (0.21%) showed an effect of 50% or more. Some of the results follow.
# Molecular target: DPAP1 (Plasmodium falciparum, UniProt Q8IIJ9)
# Assay: primary screen, percent inhibition; read by cleavage of a fluorogenic dipeptide substrate; higher = more effect of the substance
# Design: species or system P. falciparum D10 trophozoite lysates; single well
# 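Note: 30 min substrate incubation versus DMSO and 10 µM JCP410 controls.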
# DPAP1, sequence (Q8IIJ9 whole entry, looked up): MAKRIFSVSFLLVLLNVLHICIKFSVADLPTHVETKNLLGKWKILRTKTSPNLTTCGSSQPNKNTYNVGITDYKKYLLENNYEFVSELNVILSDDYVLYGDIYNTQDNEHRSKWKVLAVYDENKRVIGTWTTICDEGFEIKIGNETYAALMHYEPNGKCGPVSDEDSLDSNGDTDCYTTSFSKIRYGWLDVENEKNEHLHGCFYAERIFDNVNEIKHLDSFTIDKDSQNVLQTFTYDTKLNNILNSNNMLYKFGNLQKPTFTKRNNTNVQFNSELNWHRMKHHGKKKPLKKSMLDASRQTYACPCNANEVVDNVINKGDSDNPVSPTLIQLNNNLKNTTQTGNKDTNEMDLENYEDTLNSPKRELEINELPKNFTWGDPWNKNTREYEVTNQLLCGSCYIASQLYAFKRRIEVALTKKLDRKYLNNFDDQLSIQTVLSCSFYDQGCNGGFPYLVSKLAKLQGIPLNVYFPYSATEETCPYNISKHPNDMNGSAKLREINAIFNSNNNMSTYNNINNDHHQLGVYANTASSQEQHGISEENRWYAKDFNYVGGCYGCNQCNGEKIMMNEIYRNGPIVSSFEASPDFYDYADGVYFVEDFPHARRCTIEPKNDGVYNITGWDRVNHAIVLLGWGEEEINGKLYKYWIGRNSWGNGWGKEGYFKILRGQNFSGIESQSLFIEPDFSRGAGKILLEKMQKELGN
row,Structure (SMILES),% Inhibition @ 10 uM [%]
1,CC(C)(C)NC(=O)CN(c1ccccc1Cl)S(=O)(=O)c1ccccc1,1.1
2,COC(=O)c1ccc(C2Oc3ccc(Br)cc3C3CC(c4ccco4)=NN32)cc1 (stereo not drawn),-1.11
3,CCC1CCCCN1CCCNC(=O)c1csc2c1CCCCC2 (stereo not drawn),3.54
4,CCOc1cc(C(=O)Nc2nc[nH]n2)cc(OCC)c1OCC,-10.2
5,CC(=O)c1ccc2c(c1)c1ccccc1n2C(C)C,0.132
6,CCc1ccc(CNC(=O)Cn2ncc3c(=O)oc4ccccc4c32)cc1,-2.83
7,CCCc1noc(-c2ccc(-c3ccc(OC)cc3)cc2)n1,6.07
8,Cc1ccc(CNC(=O)CCc2nc(O)c3c4c(sc3n2)CCCC4)cc1,4.69
9,COC(=O)c1ccc(CSc2nc(O)c3cnn(-c4ccc(Cl)cc4)c3n2)o1,-9.18
10,CCOc1cc(N2C(=O)CC3CS(=O)(=O)CC32)c(OCC)cc1NC(=O)c1ccccc1 (stereo not drawn),0.755
11,COc1ccc(Cn2nnc(C(=O)NCc3ccc(C)cc3)c2N)cc1Br,-0.465
12,COc1ccc(CNC(=O)CCc2c(C)nc3c4c(C)cc(C)nc4nn3c2C)cc1,-0.72
13,O=C(NCc1ccccc1)c1cc(-c2ccccn2)nc2ccc(S(=O)(=O)N3CCOCC3)cc12,3.66
14,O=[N+]([O-])c1cc(-c2n[nH]c(O)c2C2=NCCCCC2)c(Cl)cc1Cl,-0.414
15,COc1ccc(Cn2c(SCc3ccc(C(=O)NCc4cccnc4)cc3)nc3cccnc32)cc1,3.46
16,Cc1ccc(C2CC(C(F)(F)F)n3ncc(C(=O)Nc4ccc(C(C)O)cc4)c3N2)cc1 (stereo not drawn),2.65
17,COC(=O)c1cc(=O)n(CCc2ccccc2)/c(=N/CCc2ccccc2)s1,-5.25
18,CC1=CC(C)(C)N(C(=O)CN2C(=O)CCC2=O)c2cc(C)ccc21,0.317
19,O=C(Nc1cccc(Br)c1)c1cccc(Cn2cc(Cl)cn2)c1,-6.62
20,CCc1nnc2sc(NC(=O)Cc3ccccc3)nn12,-2.79
21,CNS(=O)(=O)c1cn(CC(=O)N2CCC(C)CC2)cc1S(=O)(=O)NC,-8.28
22,CCOC(=O)c1nc(-c2cccs2)no1,-11.4
23,O=C(NCc1ccco1)/C(=C/c1cccs1)NC(=O)c1cccs1,5.89
24,CCC(C(=O)NC1CCCC1)n1c(SCc2cccc(OC)c2)nc2ccncc21 (stereo not drawn),5.54
25,CCN(CC)c1ccc(NC(=O)Nc2ccc(C)cc2)cc1,-6.59

row,Structure (SMILES),% Inhibition @ 10 uM [%]
1,COCCNC(=O)c1[nH]nc2c1CCCC2,-5.37
2,Cc1c(Cc2ccccc2)sc(NC(=O)C2CCCCC2)c1C(N)=O,1.62
3,CCc1nccn1C(=O)c1cnn2c(C(F)F)cc(-c3ccccc3)nc12,75.7
4,CCOc1ccccc1CNCc1c(C(=O)O)n(Cc2ccc(OC)cc2)c2ccccc12,-4.37
5,COc1ccc(C)cc1NC(=O)CC1COc2ccccc2O1 (stereo not drawn),0.913
6,COC(=O)c1cccc(CNCCc2c(C)[nH]c3ccc(OC)cc23)c1,2.7
7,O=C(Nc1ccc(F)cc1)c1ccc(Cn2cc(Br)cn2)cc1,1.96
8,Nc1nc(-c2ccccc2)cc(C(F)F)n1,4.7
9,Cn1c2c(c3cc(C4CCCCC4)ccc31)CCc1c[nH]nc1-2,4.57
10,Cc1oc(-c2ccc(Cl)cc2)nc1CSCC(=O)NCCCN1CCOCC1,2.16
11,COc1ccc(N2C3=C(C(=O)CC(C)(C)C3)C(c3cnn(C)c3)C3=C2CC(C)(C)CC3=O)cc1,1.69
12,O=C(NC1CC1)c1cc2nc(-c3cccs3)cc(C(F)(F)Cl)n2n1,-3.69
13,Fc1ccc(N2CCN(C3CCCCCC3)CC2)cc1,-4.75
14,CCCn1c(CNC(=O)c2ccc(Cl)cc2)nc2ccccc21,1.23
15,COc1ccc(S(=O)(=O)NCc2ccc3c(c2)OCO3)cc1,-3.5
16,CCOC(=O)C1CCCCN1C1CCN(C)CC1 (stereo not drawn),-1.21
17,CN1C(=O)c2ccccc2C(C(=O)NCCC2=CCCCC2)C1c1cccs1 (stereo not drawn),-0.228
18,CCOCCCNC(=O)N1CCN(c2nnc(C)c3c(C)n(-c4ccc(Cl)cc4)nc23)CC1,2.48
19,COc1ccc(-c2nc(CS(=O)CC(=O)NCC3CCCO3)c(C)o2)cc1 (stereo not drawn),-1.05
20,C=CCNC(=O)Cc1coc2ccc3ccccc3c12,-1.11
21,CCN(CC)c1ccc(N2Cc3ccccc3C2=N)cc1,1.96
22,COc1ccccc1/C=C/CNc1cccc(SC)c1,6.54
23,CCC1(CC)Cc2ccccc2C2=C(C(=O)N3CCOCC3)C(=O)C(=O)N21,1.93
24,O=C(Nc1noc2ccccc12)c1ccc(Br)o1,-2.85
25,O=C(C1CCCN(S(=O)(=O)N2CCOCC2)C1)N1CCN(C2CCCCC2)CC1 (stereo not drawn),3.61

row,Structure (SMILES),% Inhibition @ 10 uM [%]
1,O=c1/c(=C/c2ccccc2)sc2nnc(-c3ccccc3)n12,-5.65
2,COc1ccccc1N1C(=O)CC(N2CCN(c3ccccn3)CC2)C1=O (stereo not drawn),-2.77
3,CC(C)C[C@H](NC(=O)c1ccc(-c2cc(C(=O)O)ccc2Cl)s1)C(=O)NCC#N,-6.98
4,COc1ccc(OC)c2c(C)cc(N3CCN(C(=O)CCC4CCCCC4)CC3)nc12,0.895
5,O=C(NC1CCN(Cc2ccccc2)CC1)c1ccc2c(Cl)c3c(nc2c1)CCC3,4.28
6,Cc1nc2ccc(S(=O)(=O)N(C)CC(=O)NC3CCCC(C)C3C)cc2s1 (stereo not drawn),4.33
7,CC(C)Sc1nc2c(c(=O)[nH]c(=O)n2C)n1Cc1ccccc1,-2.24
8,C=CCOc1ccc(Br)cc1/C=C(/C#N)c1nc2cc(C)ccc2[nH]1,4.38
9,CC1=Nc2nnnn2C(c2ccc(Br)cc2)/C1=C(\O)OC1CC(C)CCC1C(C)C (stereo not drawn),-1.01
10,NC(=O)c1c(NC(=O)C2CC(=O)N(c3ccccc3)C2)sc2c1CCCC2 (stereo not drawn),3.8
11,Cc1ccc(C2C(C#N)=C(N)SC(N)=C2C#N)o1,47.9
12,CCOc1ccc(C2C3=C(O)CCCC3=NC3=C2C(=O)CCC3)cc1OCC (stereo not drawn),-1.6
13,COc1ccc2[nH]cc(CCNC(=O)c3cccnc3)c2c1,-1.6
14,CCN(CC)S(=O)(=O)c1ccc(NC(=O)c2cccc(S(=O)(=O)N3CCC(C)CC3)c2)cc1,-2.59
15,CCc1ccc(S(=O)(=O)N2CCCN(S(=O)(=O)c3ccc(CC)cc3)CC2)cc1,-2.1
16,CC1CCN(S(=O)(=O)c2ccc3c(ccn3CC(=O)NCCc3ccccc3)c2)CC1,-4.65
17,CC(C)Cc1nc2ccccc2n1C(C)C(=O)O (stereo not drawn),-3.53
18,COCC(C)NCc1cccc(F)c1 (stereo not drawn),-3.27
19,COc1cc([C@H]2NCC[C@@]3(O)CCCC[C@H]23)ccc1O,-0.0372
20,CCCCN(C)Cc1c(C)nc2ccc(Br)cc2c1O,-1.63
21,Cc1ccc2cc(CCNS(C)(=O)=O)c(O)nc2c1C,-2.24
22,Cc1nn(CC(=O)NCCCN2C(C)CCCC2C)c(=O)c2cc3occc3n12 (stereo not drawn),-3.79
23,O=C(c1ccc(N2C(=O)c3cccc4c(Br)ccc(c34)C2=O)cc1)N1CCOCC1,-9.66
24,Cc1cccn2cc(-c3ccc(NS(=O)(=O)c4ccccc4)cc3)nc12,-3.72
25,OCc1nc2ccccc2n1CC(O)COc1ccccc1 (stereo not drawn),3.53

row,Structure (SMILES),% Inhibition @ 10 uM [%]
1,Cc1cc(C)c2nc(N3CCCC(C(=O)NCCCN4CCc5ccccc5C4)C3)sc2c1 (stereo not drawn),7.91
2,COc1ccc2c3ncn(CCCN4CCCCCC4)c(O)c-3nc2c1,3.24
3,O=C(O)CC(NC(=O)C12CC3CC(CC(C3)C1)C2)c1ccc(Cl)cc1 (stereo not drawn),-4.49
4,Cc1ccc(S(=O)(=O)N2CCN(C3=C(Cl)C(=O)c4ccccc4C3=O)CC2)cc1,-6.69
5,Cc1cc(C(=O)NC(C)CCc2ccco2)c2c(C)nn(-c3ccccc3)c2n1 (stereo not drawn),2.12
6,CCOC(=O)c1nnc(Cc2c(F)cccc2Cl)o1,-0.0709
7,O=C(O)C1Cc2c([nH]c3ccccc23)C(c2cccc(Br)c2)N1 (stereo not drawn),-3.65
8,CCOC(=O)NC1(C(F)(F)F)NC(=O)N(C2CCCCC2)C1=O (stereo not drawn),-5.2
9,COc1ccc(CCNC(=O)c2cc3nc(-c4cccs4)cc(C(F)(F)F)n3n2)cc1OC,-1.1
10,Cc1cccc(Cn2nc(C)c(N)c2C)c1,-3.34
11,Cc1ccc(F)c(NC(=O)c2ccc(Cn3nc(C)cc3C)o2)c1,-5.69
12,CC1C(=O)CC(c2ccccc2)OC1c1ccccc1 (stereo not drawn),1.63
13,N#C/C(C(N)=O)=C(O)/C(O)=C\C(=O)c1ccccc1,-1.24
14,Cc1ccc(OCC(=O)Nc2cccnc2Cl)cc1,-12.2
15,CCc1ccc(CN(C(=O)c2ccc(Br)cc2)C2CCS(=O)(=O)C2)cc1 (stereo not drawn),-7.5
16,NCC1CCN(S(=O)(=O)c2ccccc2)CC1,-2.84
17,O=C(c1cc(S(=O)(=O)N2CCOCC2)ccc1F)N1CCC2(CC1)OCCO2,-3.78
18,CC1=C(C(=O)Nc2cc(C)ccn2)C(c2ccc(Cl)cc2)C2=C(O)CC(C)(C)CC2=N1 (stereo not drawn),-0.305
19,COc1ccc(Cl)cc1NC(=O)COc1ccc(S(=O)(=O)NC(C)C)cc1,0.605
20,CC(C)c1ccc(NC(=O)c2ccccc2Br)cc1,-0.969
21,CC1=C(C(=O)Nc2ccccc2F)C(c2cccc(Br)c2)C2=C(O)CCCC2=N1 (stereo not drawn),0.121
22,N#CC1=C(N)Oc2[nH]nc(-c3ccncc3)c2C1c1cccc(O)c1 (stereo not drawn),-3.19
23,COc1cc(-c2nc3c(=O)[nH]c(=O)n(C)c3[nH]2)ccc1O,-3.53
24,CCOC(=O)N1CCC(NC(=O)C2CCN(c3nc4ccc(OCC)cc4s3)CC2)CC1,-3.35

# Source: publication PMC6919601, “Identification of Plasmodium dipeptidyl aminopeptidase allosteric inhibitors by high throughput screening” (PLoS ONE, 2019)
